# Reference: PubChem BioAssay AID1671194 (National Center for Advancing Translational Sciences (NCATS), 2021)
# Screen size: about 140,000 compounds; about 240 (0.17%) were called active. Inconclusive means that the source gave no clear call. Such entries were picked first, then a sample of the others. Calls follow the shape of the dose curve; as a rule, active = well fitted inhibition curve with a large enough effect; inconclusive = small, poorly fitted or top-dose-only effect; inactive = no such curve, though single readings can be large or run the other way. Potencies of inconclusive entries are doubtful fits and often do not repeat.
# Assay: Primary qHTS assay for inhibitors of alpha-synuclein gene (SNCA) expression; also: nearly all actives have a fitted effect of over 45% in size;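 as to activity change, negative = inhibition: plate controls were DMSO cells for no effect and cell-free wells for full effect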
# Details: HEK-293 SNCA-luciferase knock-in, luminescence, 24 h; activity change, negative = inhibition: at 57.2 µM (top of the series) unless noted
# Potency is read from the fitted curve at half-maximal effect; tags tell the direction and shape of the fitted curve.
Structure (SMILES),Potency,"activity change, negative = inhibition"
Cc1oc(-c2ccccc2)nc1CNC(=O)Nc1ccccc1,"inconclusive: 2.82 µM [inhibitor, full curve, poor fit]",–
CC(C)NC(=O)N1CCCCCC1CN1CCCC1 (stereo not drawn),–,inactive: 20.4%
CC(C)OCCCN1C(=O)c2[nH]nc(-c3ccccc3O)c2C1c1ccc(OCc2ccccc2)cc1 (stereo not drawn),"inconclusive: 25.1 µM [inhibitor, single point]",–
COc1ccc2c(Sc3ccc(Cl)cc3)c(C(=O)NCCCN3CCCCC3)[nH]c2c1,"inconclusive: 39.8 µM [inhibitor, single point]",–
O=C1NC2(CCCN(C(=O)c3ccccc3F)C2)COc2ccccc21 (stereo not drawn),–,inactive: 9.15%
CCn1cc(S(=O)(=O)N2CC[C@H](CNC(C)=O)[C@H](N(C)C)C2)cn1,"inconclusive: 1.41 µM [inhibitor, full curve]",–
NCC(=O)N[C@H]1CN(c2nccc(C(F)(F)F)n2)C[C@@H]1C1CC1,–,inactive: 1.44%
Cc1ccc(CN2CCc3ncc(C(=O)NCc4ccccc4)n3CC2)o1,"inconclusive: 7.94 µM [inhibitor, full curve, poor fit]",–
COC1CCC(C(=O)N2CC(CNc3ccccc3)C3(C2)CN(c2ccccc2)C3)CC1 (stereo not drawn),"inconclusive: 22.4 µM [inhibitor, partial curve, poor fit]",–
Cc1c(Cl)cccc1NC(c1ccc(F)cc1)c1nnc(-c2ccccc2)o1 (stereo not drawn),"inconclusive: 39.8 µM [inhibitor, single point]",–
O=C1NC(=NC2CCCCC2)C2(CCCN(CC3CCCCC3)C2)N1c1cc(F)cc(F)c1 (stereo not drawn),"inconclusive: 39.8 µM [inhibitor, single point]",–
Cc1ccc(NC(=O)c2c(C)oc3c2C2=NCCN2C=N3)cc1F,"inconclusive: 35.5 µM [inhibitor, single point]",–
O=C(Nc1ccc(Br)c(F)c1)c1cnc(-c2ccccc2)nc1-c1ccncc1,–,inactive: -26.1%
CC(C)CNC(=O)c1ccc2nnc(-c3ccc(OC(F)(F)F)cc3)n2c1,–,inactive: 11.2%
O=C(c1cccs1)N1CCn2c(nnc2[C@@H]2C[C@@H](O)CN2Cc2ccccc2)C1,–,inactive: 5.95%
CN(C)[C@@H]1CN(Cc2ccc3[nH]ccc3c2)CC[C@@H]1CNC(=O)C1CC1,"inconclusive: 39.8 µM [inhibitor, single point]",–
CN(C)CCNC(=O)C(C)(C)Oc1nn(Cc2cccc(Cl)c2)c2ccccc12,"inconclusive: 0.891 µM [inhibitor, full curve, poor fit]",–
Cc1ccccc1OCCCCn1c(CCNC(=O)C(C)(C)C)nc2ccccc21,"inconclusive: 39.8 µM [inhibitor, single point]",–
COc1ccc(C2=NOC3(CCN(C(=O)c4ccc5c(c4)OCO5)C3)C2)cc1 (stereo not drawn),–,inactive: 24%
Cc1ccc(CNC(=O)c2ccc3c(c2)CN(Cc2cccc(F)c2F)CCO3)cc1,"inconclusive: 8.91 µM [inhibitor, single point]",–
COc1ccc(C(=O)N2CCC3(CC2)C(=NC2CCCCC2)NC(=O)N3c2cccc(OC)c2)cc1,–,inactive: 5.38%

Structure (SMILES),Potency,"activity change, negative = inhibition"
O=C1O[C@@H]2CN(S(=O)(=O)N3CCCC3)C[C@@H]2N1CCCc1ccc(F)cc1,"inconclusive: 2.24 µM [inhibitor, partial curve, poor fit]",–
Cc1cccc(Cn2c(SCc3ccc(C(=O)NC4CCCC4)cc3)nc3cccnc32)c1,"inconclusive: 39.8 µM [inhibitor, single point]",–
O=C(c1ccc2c(c1)N(Cc1ccc(Cl)cc1)C(=O)c1ccccc1S2=O)N1CCC(Cc2ccccc2)CC1 (stereo not drawn),"inconclusive: 39.8 µM [inhibitor, single point]",–
Cc1cc(C)cc(-c2ccccc2CN)c1,"inconclusive: 35.5 µM [inhibitor, single point]",–
O=C(NCCCc1nc2ccccc2n1Cc1cccc(Cl)c1)C1CCCCC1,"inconclusive: 11.2 µM [inhibitor, partial curve, poor fit]",–
COc1ccc(OCc2nc(C3CN(C(=O)C4(c5ccc(OC)cc5)CC4)C3)no2)cc1,"inconclusive: 1.41 µM [inhibitor, full curve, poor fit]",–
Cc1noc(-c2ccn3c(CNC(=O)c4cccnc4)nnc3c2)n1,"inconclusive: 3.16 µM [inhibitor, full curve, poor fit]",–
COc1ccc(-c2cc(-c3cccnc3)cn3cncc23)cc1,–,inactive: -6.2% [at 87.6 µM]
COc1ccc(OC)c(S(=O)(=O)N[C@H]2CO[C@H]3[C@@H]2OC[C@H]3OC(=O)Nc2cccc(C(F)(F)F)c2)c1,"inconclusive: 20 µM [inhibitor, single point]",–
O=C(c1cc(F)ccc1F)N1CC(Oc2cccc(-c3nc(-c4ccccc4)no3)c2)C1,–,inactive: 31%
CN1CCCN(C(=O)c2ccc(F)cc2)c2ccccc21,"inconclusive: 8.91 µM [inhibitor, single point]",–
O=C1Nc2ccc(-c3ccccc3F)cc2C(=O)N2CCN(C(=O)c3ccccc3)C[C@H]12,"inconclusive: 12.6 µM [inhibitor, single point]",–
CCCOc1ccc(OC(=O)c2cn(-c3ccc(OC)cc3)c(=O)c3ccccc23)cc1,"inconclusive: 2.51 µM [inhibitor, single point]",–
O=C(Cc1ccc(F)cc1)N1CCC(C(=O)N2CCCC2c2nc3ccncc3[nH]2)CC1 (stereo not drawn),–,inactive: 18.2%
Cc1ccccc1S(=O)(=O)N1CC[C@@H]2CN(c3cnccn3)[C@@H]2C1,"inconclusive: 39.8 µM [inhibitor, single point]",–
O=C(Nc1ccc(Cl)cc1)N1CCN(Cc2ccccc2-c2ccccc2F)CC1,"inconclusive: 39.8 µM [inhibitor, single point]",–
O=C(CNC(=O)c1ccc(-c2cccc(C(F)(F)F)c2)cc1)NCC1CC1,"inconclusive: 39.8 µM [inhibitor, single point]",–
COc1cccc(CNC(=O)CN2C(=O)NC(c3ccc(Cl)cc3)C3=C2COC3=O)c1OC (stereo not drawn),"inconclusive: 39.8 µM [inhibitor, single point]",–
Cc1ccc(C2=NC3(CCN(C(=O)c4ccsc4)CC3)ON2)cc1,–,inactive: 81.6%
COCCN[C@H]1C[C@@H]2c3[nH]c4ccccc4c3C[C@@H](C(=O)OC)N2[C@H](c2ccccc2)C1,"inconclusive: 56.2 µM [inhibitor, single point]",–
O=C(Nc1cc(Cl)ccc1Cl)c1cc(S(=O)(=O)N2CCc3ccccc3C2)ccc1F,"inconclusive: 8.91 µM [inhibitor, full curve]",–

Structure (SMILES),Potency,"activity change, negative = inhibition"
COCCn1c(COc2ccc(S(C)(=O)=O)cc2)nnc1C1CC(N)C1 (stereo not drawn),"inconclusive: 1.41 µM [inhibitor, full curve]",–
CCOc1ccc(/C=C/c2nc(C#N)c(N3CCC(C)CC3)o2)cc1,"inconclusive: 7.08 µM [inhibitor, full curve, poor fit]",–
Clc1ccc(CN2CCC3(CC2)CC(Cc2ccccc2)=NO3)cc1,"inconclusive: 8.91 µM [inhibitor, single point]",–
COCCNC(=O)CN1C(=O)COc2ccc(S(=O)(=O)N3CCCC3)cc21,"inconclusive: 0.447 µM [inhibitor, full curve, poor fit]",–
O=C(C1CCCN1C(=O)c1ccc(C(F)(F)F)cc1)N1CCC(c2nc3ccncc3[nH]2)C1 (stereo not drawn),–,inactive: 22%
CC(C)NC(=O)C1CCCN(c2nccc(Nc3ccccc3F)n2)C1 (stereo not drawn),"inconclusive: 5.62 µM [inhibitor, full curve, poor fit]",–
Cc1ccc(CNS(=O)(=O)c2ccc3c(c2)CC(C)N3C(=O)C2CCC2)cc1 (stereo not drawn),"inconclusive: 7.08 µM [inhibitor, single point]",–
COc1ccc(C(=O)N2CC[C@H]3C(=O)NCCCCCCN(Cc4ccncc4)[C@@H]3C2)cc1,–,inactive: 2.95%
O=C(c1ccc(Cn2ccnc2)o1)N1CCCCCC1c1nnc(-c2ccccc2)o1 (stereo not drawn),"inconclusive: 39.8 µM [inhibitor, single point]",–
Cc1ccccc1N1CC(c2nc3ccccc3n2Cc2ccc(Br)cc2)CC1=O (stereo not drawn),"inconclusive: 31.6 µM [inhibitor, partial curve, poor fit]",–
CCCS(=O)(=O)N1CCc2nnc(C3CC3)n2CC1,–,inactive: -14.1%
O=C(C1CC1)N1CCCCC1c1nc(C2CCOCC2)n[nH]1 (stereo not drawn),"inconclusive: 8.91 µM [inhibitor, single point]",–
Cc1c(Cl)cccc1-n1nc(C)c2c(C)cc(=O)n(CC(=O)N3CCCc4ccccc43)c21,"inconclusive: 39.8 µM [inhibitor, single point]",–
CCOCCCNc1ncnc2c1CN(C1CCCNCC1)C(=O)CN2C (stereo not drawn),"inconclusive: 3.55 µM [inhibitor, single point]",–
COc1ccccc1C(=O)Nc1cc(-c2ccncc2)nn1C,–,inactive: 53.3% [at 87.6 µM]
Cc1ccc(Cl)cc1NC(=O)CC1Sc2ccccc2NC1=O (stereo not drawn),"inconclusive: 15.8 µM [inhibitor, partial curve, poor fit]",–
COc1cccc(NC(=O)N(Cc2cn(C)c3ccccc23)C2CCCCCC2)c1,"inconclusive: 25.1 µM [inhibitor, single point]",–
O=C1CC(c2ccccc2)N(C(=O)CNC(=O)c2cc(CN3CCOCC3)on2)CCCCCN1 (stereo not drawn),"inconclusive: 8.91 µM [inhibitor, single point]",–
COc1ccc(C(=O)N2CCC3(CC2)C(OC)C(=O)N3CC2CC2)cn1 (stereo not drawn),"inconclusive: 8.91 µM [inhibitor, single point]",–
COc1ccc(CCC(=O)NCc2nnc3c(-c4nc(C)no4)cccn23)cc1,"inconclusive: 4.47 µM [inhibitor, single point]",–
O=C(NCc1ccccc1)c1ccc2c(c1)N(Cc1ccccc1)C(=O)c1ccccc1S2(=O)=O,–,inactive: 11.2%
